Laboratory results from PMC3589825, “The AFF4 scaffold binds human P-TEFb adjacent to HIV Tat” (eLife, 2013).

T1: fluorescein-labeled AFF4(32–67) peptide (human, N-terminus: C-FAM-GABA- (FAM = 5-carboxyfluoroscein, GABA = γ-amino-butyric acid spacer); C-terminal amide)
T1 construct: source: synthetic peptide (University of Utah DNA/Peptide Facility)
T1 peptide: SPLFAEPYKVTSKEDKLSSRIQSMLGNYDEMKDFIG

T2: AFF4(2–363) (human, UniProt Q9UHB7 2-363)
T2 sequence (looked up): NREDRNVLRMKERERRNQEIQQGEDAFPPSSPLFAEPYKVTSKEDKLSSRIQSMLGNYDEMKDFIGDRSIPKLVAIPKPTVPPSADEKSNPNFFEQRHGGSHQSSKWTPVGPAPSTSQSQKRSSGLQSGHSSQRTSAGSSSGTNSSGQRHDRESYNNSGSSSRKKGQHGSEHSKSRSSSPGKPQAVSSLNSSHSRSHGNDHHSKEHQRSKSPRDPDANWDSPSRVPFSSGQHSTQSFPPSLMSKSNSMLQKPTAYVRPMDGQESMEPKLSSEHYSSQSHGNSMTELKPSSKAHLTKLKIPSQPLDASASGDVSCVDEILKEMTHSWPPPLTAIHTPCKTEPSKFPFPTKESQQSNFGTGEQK

B1: cyclin T1 (CycT1) W207A (natural protein)
chain: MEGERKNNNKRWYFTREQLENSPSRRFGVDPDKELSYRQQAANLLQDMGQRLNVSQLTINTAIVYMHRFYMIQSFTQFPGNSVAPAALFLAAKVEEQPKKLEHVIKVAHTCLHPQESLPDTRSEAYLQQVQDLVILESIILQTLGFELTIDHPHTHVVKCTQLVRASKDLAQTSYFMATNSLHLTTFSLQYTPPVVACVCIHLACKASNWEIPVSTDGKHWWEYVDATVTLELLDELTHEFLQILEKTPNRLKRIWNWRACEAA
B2: cyclin T1 (CycT1) Y175A (natural protein)
chain: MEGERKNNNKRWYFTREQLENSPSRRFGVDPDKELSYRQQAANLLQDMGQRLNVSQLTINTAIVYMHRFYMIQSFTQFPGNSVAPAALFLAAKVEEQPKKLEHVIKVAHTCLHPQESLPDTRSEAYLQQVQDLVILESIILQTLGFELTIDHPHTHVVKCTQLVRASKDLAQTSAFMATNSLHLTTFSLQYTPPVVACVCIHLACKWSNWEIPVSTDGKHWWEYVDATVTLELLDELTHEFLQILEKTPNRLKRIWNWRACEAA
B3: cyclin T1 (CycT1) E211A (natural protein)
chain: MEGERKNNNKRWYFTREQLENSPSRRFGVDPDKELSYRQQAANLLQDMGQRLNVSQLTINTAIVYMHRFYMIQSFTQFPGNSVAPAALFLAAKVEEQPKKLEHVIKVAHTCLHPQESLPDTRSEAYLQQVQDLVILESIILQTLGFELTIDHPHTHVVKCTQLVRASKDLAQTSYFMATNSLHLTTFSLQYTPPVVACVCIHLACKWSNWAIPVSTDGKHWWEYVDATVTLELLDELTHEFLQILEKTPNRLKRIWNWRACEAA
B4: cyclin T1 (CycT1) D169A (natural protein)
chain: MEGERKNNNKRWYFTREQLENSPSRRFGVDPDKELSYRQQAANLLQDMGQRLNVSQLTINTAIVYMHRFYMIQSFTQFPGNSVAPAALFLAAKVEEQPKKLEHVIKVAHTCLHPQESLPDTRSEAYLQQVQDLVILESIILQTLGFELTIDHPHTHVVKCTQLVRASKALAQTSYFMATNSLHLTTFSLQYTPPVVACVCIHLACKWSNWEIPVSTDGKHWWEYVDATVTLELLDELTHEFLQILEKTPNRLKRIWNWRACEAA
B5: cyclin T1 (CycT1) F176A (natural protein)
chain: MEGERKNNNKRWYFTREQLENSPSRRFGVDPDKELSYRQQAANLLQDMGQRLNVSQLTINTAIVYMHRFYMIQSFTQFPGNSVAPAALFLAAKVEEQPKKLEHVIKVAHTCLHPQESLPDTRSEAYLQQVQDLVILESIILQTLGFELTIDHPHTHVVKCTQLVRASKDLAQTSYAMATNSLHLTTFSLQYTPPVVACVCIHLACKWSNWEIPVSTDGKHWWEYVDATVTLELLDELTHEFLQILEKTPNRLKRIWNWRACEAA
B6: cyclin T1 (CycT1) R165A (natural protein)
chain: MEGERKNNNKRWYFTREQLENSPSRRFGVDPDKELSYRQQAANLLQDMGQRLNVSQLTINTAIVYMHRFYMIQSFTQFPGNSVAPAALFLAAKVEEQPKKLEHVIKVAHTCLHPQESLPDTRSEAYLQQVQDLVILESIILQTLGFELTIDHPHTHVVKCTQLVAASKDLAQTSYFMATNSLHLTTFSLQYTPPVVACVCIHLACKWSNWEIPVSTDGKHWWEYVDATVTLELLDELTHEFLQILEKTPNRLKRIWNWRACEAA
B7: cyclin T1 (CycT1) W210A (natural protein)
chain: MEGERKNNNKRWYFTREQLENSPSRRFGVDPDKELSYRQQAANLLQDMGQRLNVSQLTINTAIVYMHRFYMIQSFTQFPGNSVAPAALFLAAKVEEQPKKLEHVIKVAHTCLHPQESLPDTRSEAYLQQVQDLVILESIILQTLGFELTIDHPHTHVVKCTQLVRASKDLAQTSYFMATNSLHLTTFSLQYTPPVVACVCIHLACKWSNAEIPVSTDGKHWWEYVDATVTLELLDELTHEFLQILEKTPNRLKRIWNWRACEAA
B8: cyclin T1 (CycT1), purified alone, wild type (natural protein)
chain: not shown
notes: source: purified

Biological target: T1, fluorescein-labeled AFF4(32–67) peptide
Assay: fluorescence polarisation
Settings: both partners purified

Binder | Kd
B1 | 6050 ± 871 nM
B2 | 228 ± 18 nM
B3 | 356 ± 29 nM
B4 | 438 ± 41 nM
B5 | 645 ± 58 nM
B6 | 1590 ± 171 nM
B7 | 2190 ± 246 nM

biological target: T2, AFF4(2–363); assay: fluorescence polarisation; competition titration of unlabeled AFF4 segments against 5 nM fluorescent peptide with 75 nM CycT1, 45 nM P-TEFb or 6 nM Tat-P-TEFb; 25 mM HEPES pH 7.5, 100 mM NaCl, 10% glycerol, 0.1% NP40, 0.5 mM TCEP; settings: both partners purified

Binder | Kd
B8 | 115 ± 15 nM
